Test results taken from PubChem BioAssay AID2147 (National Center for Advancing Translational Sciences (NCATS), 2009).
Values joined by “and” are separate entries in the source; they are usually repeats but may differ in a detail not shown here. Equal entries are not always repeated. Among all 230,000 compounds or so, about 3,600 (1.6%) were called active. The shares of active, inactive and inconclusive entries below differ from those in the screen. Calls follow the shape of the dose curve; as a rule, active = well fitted inhibition curve with a large enough effect (not every such curve was filed as active); inconclusive = small, poorly fitted or top-dose-only effect, or another doubt; inactive = no such curve, though single readings can be large or run the other way. A potency beside an inconclusive call is a rough fit, not a confirmed value.

molecular target: Lysine-specific demethylase 4E (Homo sapiens) (UniProt B2RXH2); assay: qHTS Assay for Inhibitors of Human Jumonji Domain Containing 2E (JMJD2E); conditions: JMJD2E catalytic domain, FDH-coupled NADH fluorescence (FDH is formaldehyde dehydrogenase); series mostly up to 57.1 µM
Also: nearly all actives have a fitted effect of over 50% in size.
Potency is read from the fitted curve at half-maximal effect; tags tell the direction and shape of the fitted curve.

UniProt B2RXH2, sequence (B2RXH2 whole entry, looked up, the tested form may be a part): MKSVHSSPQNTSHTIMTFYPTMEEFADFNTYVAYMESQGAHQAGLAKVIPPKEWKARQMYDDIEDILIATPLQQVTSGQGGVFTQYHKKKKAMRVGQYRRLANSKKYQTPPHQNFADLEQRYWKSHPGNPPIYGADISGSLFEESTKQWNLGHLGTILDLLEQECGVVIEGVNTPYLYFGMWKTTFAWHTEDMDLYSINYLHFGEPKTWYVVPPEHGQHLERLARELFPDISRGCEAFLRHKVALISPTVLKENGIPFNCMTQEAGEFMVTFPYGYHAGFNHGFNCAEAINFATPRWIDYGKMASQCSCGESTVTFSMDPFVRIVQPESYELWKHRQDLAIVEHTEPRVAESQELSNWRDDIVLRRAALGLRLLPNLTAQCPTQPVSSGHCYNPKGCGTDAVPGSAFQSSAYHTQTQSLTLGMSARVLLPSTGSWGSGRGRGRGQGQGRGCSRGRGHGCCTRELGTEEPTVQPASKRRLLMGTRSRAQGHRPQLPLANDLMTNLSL

Question: With `COc1cccc(-c2nnc(SCC(=O)N3CCCC3=O)n2-c2ccccc2)c1` as the molecule, how does the Potency read?
Answer: inactive

Question: With `O=C(Nc1cccc(-c2nc3ccccc3s2)c1)c1ccc2c(c1)OCO2` as the molecule, how does the Potency read?
Answer: inconclusive: 25.1 µM [inhibitor, single point]

Question: With `Cc1ccc(Cl)cc1NC(=O)COC(=O)c1ccccc1O` as the molecule, how does the Potency read?
Answer: inconclusive: 28.2 µM [inhibitor, partial curve]

Question: With `CCOC(=O)c1c(C)cc(C)n2c1nc1ccccc12` as the molecule, how does the Potency read?
Answer: inconclusive: 25.1 µM [inhibitor, partial curve]

Question: How did the Potency turn out when `CCOC(=O)c1oc2c(O)c(O)ccc2c(=O)c1-c1nncn1-c1ccccc1` was run?
Answer: active: 7.94 µM

Question: For `O=C(N/N=C/c1cccc([N+](=O)[O-])c1)c1cccs1`, which Potency is on record?
Answer: inactive

Question: `c1ccc(CC2CCN(c3nc4ccccc4n4nnnc34)CC2)cc1` was tested. Which Potency did it give?
Answer: inconclusive: 31.6 µM [inhibitor, partial curve]

Question: `Cc1ccc(OCC(O)CN2CC3(C)CC2CC(C)(C)C3)cc1` (stereo not given) was tested. Which Potency did it give?
Answer: inconclusive: 35.5 µM [inhibitor, single point]

Question: `COC(=O)c1cccc(S(=O)(=O)N(Cc2ccco2)Cc2cc3ccc(OC)cc3[nH]c2=O)c1` was tested. Which Potency did it give?
Answer: inconclusive: 25.1 µM [inhibitor, single point]

Question: `CCOC(=O)c1cn2nc(Oc3ccc(OC)cc3)ccc2n1` was tested. Which Potency did it give?
Answer: inconclusive: 8.91 µM [inhibitor, single point]

Question: How did the Potency turn out when `COc1ccc(N2CCN(c3cc(C)c4ccccc4n3)CC2)cc1` was run?
Answer: inconclusive: 35.5 µM [inhibitor, single point]

Question: For `O=C(NCCCCC(NC(=O)c1ccc([N+](=O)[O-])cc1)C(=O)O)c1ccc([N+](=O)[O-])cc1` (stereo not given), which Potency is on record?
Answer: inactive

Question: For `COc1ccc(C(=O)Nc2sc(C)c(C)c2CN2CCOCC2)cc1`, which Potency is on record?
Answer: inconclusive: 35.5 µM [inhibitor, single point]

Question: Which Potency does the source give for `Cc1ccc(S(=O)(=O)N2CCCN(S(=O)(=O)c3ccc4ccccc4c3)CC2)cc1` here?
Answer: inactive

Question: `CC(C)Cc1nnc(NC(=O)CS(=O)(=O)Cc2ccccc2)s1` was tested. Which Potency did it give?
Answer: inactive

Question: `CCc1cccc2c(C(=O)COC(=O)/C=C/c3ccc(O)c(OC)c3)c[nH]c12` was tested. Which Potency did it give?
Answer: inconclusive: 31.6 µM [inhibitor, single point]

Question: Which Potency does the source give for `C1CCC2(CC1)C1=C(CCCC1)Nc1nnnn12` here?
Answer: inactive

Question: With `O=C1C2CC=C(Cl)CC2C(=O)N1CN(Cc1ccco1)CN1C(=O)C2CC=C(Cl)CC2C1=O` (stereo not given) as the molecule, how does the Potency read?
Answer: inconclusive: 35.5 µM [inhibitor, single point]

Question: With `Cc1ccc(Nc2ncc(C(=O)NCCCN3CCN(C)CC3)c3ccccc23)cc1Cl` as the molecule, how does the Potency read?
Answer: inconclusive: 39.8 µM [inhibitor, single point]

Question: Which Potency does the source give for `COc1ccc(CCc2nnc(CCC(=O)N(C)Cc3ccncc3C)o2)cc1` here?
Answer: inconclusive: 7.94 µM [inhibitor, single point]

Question: How did the Potency turn out when `COc1ccc2c(c1OC)C(=O)N1N=C(c3ccc(-c4ccccc4)cc3)CC21` (stereo not given) was run?
Answer: inactive

Question: With `CCc1nc(SCC(=O)N2CCCC2)c2ccccc2n1` as the molecule, how does the Potency read?
Answer: inactive

Question: Which Potency does the source give for `COc1ccc(CSC(=N)N)cc1[N+](=O)[O-]` here?
Answer: inactive

Question: For `O=C(Cc1ccccc1)NNc1c2ccccc2nc2ccccc12`, which Potency is on record?
Answer: inconclusive: 39.8 µM [inhibitor, single point]

Question: Which Potency does the source give for `CCc1nc(SCC(=O)N2CCN(c3ccccc3)CC2)c2c(=O)n(C)c(=O)n(C)c2n1` here?
Answer: inactive

Question: With `COc1ccccc1Nc1ccc([N+](=O)[O-])cc1N` as the molecule, how does the Potency read?
Answer: inactive

Question: `Cc1ccc2nc(SCC(=O)NCc3cccs3)[nH]c2c1` was tested. Which Potency did it give?
Answer: inactive

Question: `COc1cc(/C=N/Nc2ncc(C(F)(F)F)cc2Cl)cc(OC)c1O` was tested. Which Potency did it give?
Answer: inconclusive: 8.91 µM [inhibitor, single point]

Question: For `COC(=O)CSc1nnc(-c2ccccn2)n1Cc1ccco1`, which Potency is on record?
Answer: inactive

Question: `Cc1occc1-c1nnc(SCc2cc(=O)n3cc(Br)ccc3n2)n1C` was tested. Which Potency did it give?
Answer: inconclusive: 39.8 µM [inhibitor, single point]

Question: With `CCC(c1nnnn1CCc1ccccc1)N(Cc1ccco1)Cc1cc2cc(C)cc(C)c2[nH]c1=O` (stereo not given) as the molecule, how does the Potency read?
Answer: inconclusive: 35.5 µM [inhibitor, single point]

Question: How did the Potency turn out when `Cc1[nH]c2ccc(F)cc2c1CCN(Cc1cccnc1)C(=S)Nc1ccccc1` was run?
Answer: inactive

Question: Which Potency does the source give for `COc1ccc(CN2C=C3C(=O)C(C)(OC(=O)C4CCCC4)C(=O)C=C3C=C2c2ccsc2)cc1` (stereo not given) here?
Answer: inconclusive: 28.2 µM [inhibitor, single point] and inconclusive: 3.16 µM [inhibitor, partial curve, poor fit]

Question: `O=[N+]([O-])c1ccc(Sc2nnnn2-c2ccccc2)c(Cl)c1` was tested. Which Potency did it give?
Answer: inactive

Question: How did the Potency turn out when `COc1ccccc1NC(=O)/C=C\C(=O)O` was run?
Answer: inactive

Question: How did the Potency turn out when `O=C(N/N=C/c1c(O)n(-c2ccc(Cl)cn2)c(=O)c2ccccc12)C1CC1` was run?
Answer: inconclusive: 31.6 µM [inhibitor, partial curve]

Question: `O=C(NCC1CCCO1)C(=O)N/N=C/c1cc(Cl)ccc1O` (stereo not given) was tested. Which Potency did it give?
Answer: active: 12.6 µM

Question: Which Potency does the source give for `O=C1S/C(=C\c2ccc(O)c([N+](=O)[O-])c2)C(=O)N1Cc1cccc([N+](=O)[O-])c1` here?
Answer: inactive

Question: For `CC(=O)N1N=C(c2ccccc2)OC1c1ccc([N+](=O)[O-])s1` (stereo not given), which Potency is on record?
Answer: active: 14.1 µM

Question: For `Cc1c(-c2cccc(Cl)c2)nc2ccccc2c1C(=O)OCC(=O)N(C)C1CCS(=O)(=O)C1` (stereo not given), which Potency is on record?
Answer: inconclusive: 28.2 µM [inhibitor, single point]

Question: With `CCN(CC)c1cccc(OCC(=O)N(C)CCC#N)c1` as the molecule, how does the Potency read?
Answer: inconclusive: 25.1 µM [inhibitor, partial curve]

Question: With `Cc1ccc2nc(SCC(=O)Nc3ccc(F)c([N+](=O)[O-])c3)[nH]c2c1` as the molecule, how does the Potency read?
Answer: inactive

Question: `Cn1c(=S)[nH]c(=O)c2ncc(=O)[nH]c21` was tested. Which Potency did it give?
Answer: inactive

Question: Which Potency does the source give for `Cn1c(-c2ccccc2[N+](=O)[O-])[n+](C)c2ccccc21` here?
Answer: inactive

Question: For `CCOC(=O)c1cnn(-c2ccccc2)c1NC(=O)c1ccccc1C`, which Potency is on record?
Answer: inactive

Question: With `CCOC(=O)c1ccc(Nc2cc(C)nc(N3CCOCC3)n2)cc1` as the molecule, how does the Potency read?
Answer: inconclusive: 28.2 µM [inhibitor, partial curve]

Question: For `O=C(OCC1OC(OC(=O)c2cc(O)c(O)c(OC(=O)c3cc(O)c(O)c(O)c3)c2)[C@@H](OC(=O)c2cc(O)c(O)c(OC(=O)c3cc(O)c(O)c(O)c3)c2)C(OC(=O)c2cc(O)c(O)c(OC(=O)c3cc(O)c(O)c(O)c3)c2)C1OC(=O)c1cc(O)c(O)c(OC(=O)c2cc(O)c(O)c(O)c2)c1)c1cc(O)c(O)c(OC(=O)c2cc(O)c(O)c(O)c2)c1` (stereo not given in full), which Potency is on record?
Answer: active: 0.282 µM

Question: With `CCCCC(=O)Nc1ccc2c(c1)C(=O)NC2=O` as the molecule, how does the Potency read?
Answer: inconclusive: 31.6 µM [inhibitor, partial curve]

Question: How did the Potency turn out when `CC1(C)CC(=O)C2=C(C1)Nc1ncnn1C2c1ccccn1` (stereo not given) was run?
Answer: inconclusive: 28.2 µM [inhibitor, single point]

Question: Which Potency does the source give for `CC(C)(CNC(=O)c1cc(=O)[nH]c2ccccc12)N1CCOCC1` here?
Answer: inconclusive: 28.2 µM [inhibitor, single point]

Question: How did the Potency turn out when `CCOc1cnc(-c2ccccc2F)o1` was run?
Answer: inconclusive: 39.8 µM [inhibitor, single point]

Question: With `Clc1ccc2nc(-c3ccccc3)[nH]c2c1` as the molecule, how does the Potency read?
Answer: inconclusive: 28.2 µM [inhibitor, partial curve]

Question: For `CN1CCN(CCCN2c3ccccc3Sc3ccc(Cl)cc32)CC1`, which Potency is on record?
Answer: inconclusive: 39.8 µM [inhibitor, single point]

Question: How did the Potency turn out when `CCOc1ccc(C2C(C#N)=C(N)N3C(=C2C#N)Sc2ccccc23)cc1` (stereo not given) was run?
Answer: inconclusive: 28.2 µM [inhibitor, single point]

Question: For `O=C(Cc1ccccc1)Nc1ccc2c(c1)C(=O)N(CC1CCCO1)C2=O` (stereo not given), which Potency is on record?
Answer: inconclusive: 31.6 µM [inhibitor, partial curve]

Question: Which Potency does the source give for `COCCNC(=O)CN(C(=O)Cn1nnc2ccccc21)c1ccc(C)cc1` here?
Answer: inactive

Question: Which Potency does the source give for `COC(=O)[C@@]1(Cc2ccc(OC)cc2)[C@H]2c3cc(C(=O)N4CCCC4)n(CCN4CNCC4=O)c3C[C@H]2CN1C(=O)c1ccccc1` here?
Answer: inactive

Question: For `O=C(O)c1ccc(N/C(=N\S(=O)(=O)c2ccc(Cl)cc2)c2ccccc2)cc1`, which Potency is on record?
Answer: inactive

Question: Which Potency does the source give for `N=c1c[n+](N2CCOCC2)[n-]o1` here?
Answer: inactive

Question: `N=C1/C(=C\c2ccc(SCc3ccccc3)o2)C(=O)N=C2SC(CC(=O)N3CCOCC3)=NN12` was tested. Which Potency did it give?
Answer: inconclusive: 31.6 µM [inhibitor, single point]

Question: `CCOC(=O)c1sc(=NC(=O)c2ccc(Cl)s2)n(C)c1C` was tested. Which Potency did it give?
Answer: inconclusive: 1.78 µM [inhibitor, full curve]

Question: With `Cc1ccc(C(=O)N/C(=C/c2cccs2)C(=O)NCC2CCCO2)cc1` (stereo not given) as the molecule, how does the Potency read?
Answer: inconclusive: 39.8 µM [inhibitor, single point]

Question: Which Potency does the source give for `O=S(=O)(Cc1ccccc1Cl)N1CCCCC1` here?
Answer: inconclusive: 31.6 µM [inhibitor, partial curve]

Question: How did the Potency turn out when `O=C(c1ccc(S(=O)(=O)c2ccccc2)cc1)N1CCc2ccccc2C1` was run?
Answer: inactive

Question: `CC(=O)N(Cc1cc(=O)[nH]c2ccccc12)c1cccc(C)c1` was tested. Which Potency did it give?
Answer: inconclusive: 39.8 µM [inhibitor, single point]

Question: Which Potency does the source give for `C/C(O)=c1/ccc2cccc3nc(C)nc1c23` here?
Answer: inconclusive: 35.5 µM [inhibitor, single point]

Question: With `Cc1c2cnn(CC(=O)Nc3c(F)c(F)cc(F)c3F)c(=O)c2c(C)n1Cc1ccccc1F` as the molecule, how does the Potency read?
Answer: inconclusive: 39.8 µM [inhibitor, single point]

Question: How did the Potency turn out when `O=C(CSc1nnc(-c2n[nH]c3ccccc23)n1-c1ccccc1)Nc1ccccc1Cl` was run?
Answer: inconclusive: 39.8 µM [inhibitor, single point]

Question: For `O=C(c1ccc(COc2ccccc2Cl)o1)N1CCN(Cc2ccc3c(c2)OCO3)CC1`, which Potency is on record?
Answer: inactive

Question: `CCc1nc(N)c(C#N)c(-c2ccc(O)c(OC)c2)c1C` was tested. Which Potency did it give?
Answer: inconclusive: 31.6 µM [inhibitor, single point]
